Literature values as cited in article PMC4976356, “Structural insight into β-Clamp and its interaction with DNA Ligase in Helicobacter pylori” (Scientific Reports, 2016).

Test system: Ecβ-clamp

B1: MutS: MutS, binds to β-clamp in E. coli (protein, UniProt P23909 1-853, looked up)
DNA mismatch repair protein …: MSAIENFDAHTPMMQQYLRLKAQHPEILLFYRMGDFYELFYDDAKRASQLLDISLTKRGASAGEPIPMAGIPYHAVENYLAKLVNQGESVAICEQIGDPATSKGPVERKVVRIVTPGTISDEALLQERQDNLLAAIWQDSKGFGYATLDISSGRFRLSEPADRETMAAELQRTNPAELLYAEDFAEMSLIEGRRGLRRRPLWEFEIDTARQQLNLQFGTRDLVGFGVENAPRGLCAAGCLLQYAKDTQRTTLPHIRSITMEREQDSIIMDAATRRNLEITQNLAGGAENTLASVLDCTVTPMGSRMLKRWLHMPVRDTRVLLERQQTIGALQDFTAGLQPVLRQVGDLERILARLALRTARPRDLARMRHAFQQLPELRAQLETVDSAPVQALREKMGEFAELRDLLERAIIDTPPVLVRDGGVIASGYNEELDEWRALADGATDYLERLEVRERERTGLDTLKVGFNAVHGYYIQISRGQSHLAPINYMRRQTLKNAERYIIPELKEYEDKVLTSKGKALALEKQLYEELFDLLLPHLEALQQSASALAELDVLVNLAERAYTLNYTCPTFIDKPGIRITEGRHPVVEQVLNEPFIANPLNLSPQRRMLIITGPNMGGKSTYMRQTALIALMAYIGSYVPAQKVEIGPIDRIFTRVGAADDLASGRSTFMVEMTETANILHNATEYSLVLMDEIGRGTSTYDGLSLAWACAENLANKIKALTLFATHYFELTQLPEKMEGVANVHLDALEHGDTIAFMHSVQDGAASKSYGLAVAALAGVPKEVIKRARQKLRELESISPNAAATQVDGTQMSLLSVPEETSPAVEALENLDPDSLTPRQALEWIYRLKSLV
interaction with E. coli β-clamp (in words): will also bind to β-clamp in E. coli
